Results from publication PMC4336329 (PLoS ONE, 2015).
About 14,000 (4.5%) of roughly 310,000 compounds showed an effect of 50% or more. Effects have a minus sign here. Some of the results follow.

Target: human ether-à-go-go-related gene (hERG) potassium channel (human, UniProt Q12809)
Test: primary screen, population patch clamp on CHO cells stably expressing hERG
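Note: peak tail current of the secondary pulse compared with the same well before compound.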

Chain of human ether-à-go-go-related gene (hERG) potassium channel (Q12809 whole entry, looked up): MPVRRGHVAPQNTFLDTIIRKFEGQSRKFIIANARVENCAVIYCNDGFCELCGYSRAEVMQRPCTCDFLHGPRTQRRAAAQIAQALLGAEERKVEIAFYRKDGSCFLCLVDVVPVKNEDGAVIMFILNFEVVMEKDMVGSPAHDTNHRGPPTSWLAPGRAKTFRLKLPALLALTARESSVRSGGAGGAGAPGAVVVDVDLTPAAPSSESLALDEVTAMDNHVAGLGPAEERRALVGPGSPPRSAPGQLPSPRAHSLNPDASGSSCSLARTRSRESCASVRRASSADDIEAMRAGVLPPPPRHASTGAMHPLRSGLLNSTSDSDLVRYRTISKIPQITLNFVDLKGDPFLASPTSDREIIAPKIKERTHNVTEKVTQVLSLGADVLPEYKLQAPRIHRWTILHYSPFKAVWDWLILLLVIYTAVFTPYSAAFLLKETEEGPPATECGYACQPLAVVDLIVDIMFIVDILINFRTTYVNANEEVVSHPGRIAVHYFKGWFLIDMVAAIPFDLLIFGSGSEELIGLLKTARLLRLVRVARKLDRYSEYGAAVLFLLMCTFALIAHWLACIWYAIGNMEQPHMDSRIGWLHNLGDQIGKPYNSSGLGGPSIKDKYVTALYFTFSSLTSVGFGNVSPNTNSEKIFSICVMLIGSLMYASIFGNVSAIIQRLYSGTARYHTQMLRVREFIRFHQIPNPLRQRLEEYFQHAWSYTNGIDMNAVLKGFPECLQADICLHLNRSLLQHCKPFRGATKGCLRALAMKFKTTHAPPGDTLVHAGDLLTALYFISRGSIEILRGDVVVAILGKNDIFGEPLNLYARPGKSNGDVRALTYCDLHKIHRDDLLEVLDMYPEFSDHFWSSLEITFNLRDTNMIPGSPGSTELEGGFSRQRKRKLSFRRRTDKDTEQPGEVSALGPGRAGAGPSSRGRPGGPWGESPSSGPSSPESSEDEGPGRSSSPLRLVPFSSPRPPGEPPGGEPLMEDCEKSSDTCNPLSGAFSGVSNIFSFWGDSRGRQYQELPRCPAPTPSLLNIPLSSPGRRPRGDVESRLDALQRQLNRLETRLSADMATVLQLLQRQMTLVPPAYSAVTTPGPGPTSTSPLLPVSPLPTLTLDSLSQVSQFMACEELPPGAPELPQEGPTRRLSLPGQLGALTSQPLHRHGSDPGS

Row | Compound | hERG current change (%, negative = inhibition) at 10uM [%]
1 | Cc1ccc2c(CC(=O)N(C)c3c(N)n(Cc4ccccc4)c(=O)[nH]c3=O)coc2c1 | -4.72
2 | CCC(CC)N1CCN(CCc2ccccc2)C(CCO)C1 (centres unmarked) | -19
3 | Cc1onc(-c2ccccc2Cl)c1C(=O)O/N=C(\N)c1ccc([N+](=O)[O-])o1 | -43.6
4 | CCN1C(=O)C(=O)N(Cc2ccc(OC)c(F)c2)C1=O | 15.1
5 | O=C(Nc1ccc(F)cc1)Nc1nnc(Cc2ccccc2)s1 | 16
6 | Cc1sc2nc(C3CC3)nc(N3CCN(C(=O)c4ccc(F)cc4)CC3)c2c1C.Cl | -69.8
7 | O=C(NCCc1ccccc1)C(=O)NCC1CCNCC1 | 17
8 | Cc1ccccc1-n1c(=O)cc(N2CCN(Cc3ccccc3)CC2)[nH]c1=O | 9.88
9 | O=C(Nc1nncs1)C1(c2ccccc2)CCCC1 | -18.8
10 | CC(CN1C(C)CCCC1C)OC(=O)c1ccc(Cl)cc1Cl (centres unmarked) | -51.7
11 | O=C(C[n+]1cc(-c2ccccc2)n2c1CCCCC2)c1ccc(Cl)cc1.[Br-] | -23.4
12 | Cn1c(=O)c2ccccc2n2c(CCl)nnc12 | -7.9
13 | Cc1c(CN2CCCC(C(=O)Nc3cccc(-n4cccn4)c3)C2)cnn1C (centres unmarked) | 7.86
14 | CCCCSC1(SCCCC)N=C(N)C2(C#N)C(c3ccccc3)NC(C)=CC12C#N (centres unmarked) | 2.53
15 | O=P(O)(O)C12CC3CC(CC(C3)C1)C2 | -0.367
16 | Br.C=CCn1c(=N)n(CC(=O)c2ccc(Cl)cc2)c2ccccc21 | -36.1
17 | COc1ccc(OC)c(NC(=O)CSc2nnc(-c3cccnc3)s2)c1 | -11.6
18 | CCN(CC)Cc1c(C(=O)N/N=C/c2ccc(C)o2)nnn1-c1nonc1N | -26.3
19 | CC1(C)CC(=O)C(C=Nc2ccc(O)c(N=CC3=C(O)CC(C)(C)CC3=O)c2)=C(O)C1 | 7.73

Row | Compound | hERG current change (%, negative = inhibition) at 10uM [%]
20 | NC(=O)c1ccc(NC(=O)c2cncn2-c2ccccc2)cc1 | 24.8
21 | COc1ccc(S(=O)(=O)N(C)c2ccc(C(=O)NCc3ccncc3)cc2)cc1 | -18.8
22 | CC1(C)O[C@@H]2C[C@H]3[C@@H]4C[C@H](F)C5=CC(=O)C=C[C@]5(C)[C@H]4[C@@H](O)C[C@]3(C)[C@]2(C(=O)CO)O1 | 7.88
23 | COc1ccc(-c2nnn(CC(=O)Nc3ccc4c(c3)OCCO4)n2)cc1OC | 16.2
24 | Cc1ccc(NC(=S)NCc2cccn2C)cc1 | 6.82
25 | COCCn1nnnc1C(c1cc2cc(C)ccc2[nH]c1=O)N1CCN(C2CCCCC2)CC1 (centres unmarked) | -19.9
26 | CCCc1cc(=O)oc2cc(C)c3c(C)coc3c12 | 5.51
27 | CCOC(=O)C(=CNc1ccc(Oc2cccnc2)nc1)C(=O)OCC | 0.00188
28 | O=C(Nc1ccccc1)C1CCCN(C(=O)c2ccc(F)cc2)C1 (centres unmarked) | -51.8
29 | COCc1cc(=O)[nH]c(SCC(=O)Nc2ccccc2)n1 | 4.96
30 | CC(C)C(=O)NNC(=O)CSc1nc(C2CCCCC2)nc2ccccc12 | 13.2
31 | Cc1cccc(NC(=O)c2ccc(COc3ccc4ccccc4c3)o2)n1 | 9.74
32 | Cc1ccccc1NC(=O)CN1C(=O)CSc2ccc(S(=O)(=O)N3CCCC3)cc21 | 18.3
33 | COc1ccccc1C1C2=C(CC(C)(C)CC2=O)N(CC(=O)O)C2=C1C(=O)CC(C)(C)C2 | 17.6
34 | COc1cccc(C=Nc2cc(C)on2)c1O | 9.02
35 | COc1ccc(NC(=O)c2ccc(OC(F)F)cc2)cc1Cl | -16.7
36 | CC(C)CCNC(=O)CCCOc1ccccc1 | -4.92
37 | O=C(CS(=O)(=O)Cc1ccccc1)Nc1nnc(C2CCCCC2)s1 | -21.7
38 | Cc1ccc(-c2ccc(/C=N/NC(=O)CN3CCOCC3)o2)cc1[N+](=O)[O-] | -29.5

Row | Compound | hERG current change (%, negative = inhibition) at 10uM [%]
39 | CCc1nnc(NC(=O)C2c3ccccc3Oc3ccccc32)s1 | 3.2
40 | Cc1cc(C)cc(N(CC(=O)Nc2ccccc2-c2ccccc2)S(=O)(=O)c2ccccc2)c1 | 13.1
41 | CCOC(=O)C1=C(O)/C(=C/c2cn(CC(=O)NCC3CCCO3)c3ccccc23)SC1=Nc1ccc(C)cc1 (centres unmarked) | -0.845
42 | CCN(CC(=O)Nc1ccc(OC(F)F)cc1)C1CCCCC1 | -73.5
43 | C/C(=N\NC(=O)C1CCCN(S(=O)(=O)c2ccccc2)C1)c1cccnc1 (centres unmarked) | -6.82
44 | COc1ccc(CN2C(=O)NC3(CCCc4ccccc43)C2=O)cc1F (centres unmarked) | -14.4
45 | COCCCN(C(=O)CC1OC(=O)c2ccccc21)c1c(N)n(Cc2ccccc2)c(=O)[nH]c1=O (centres unmarked) | 12
46 | CCCn1c(N2CCN(CC(=O)NCc3cccs3)CC2)nc2ccccc21 | -74.7
47 | CC(C)(O)C#Cc1ccccc1C(=O)NC(CC(N)=O)C(=O)O (centres unmarked) | 14.3
48 | CCc1nnc(NC(=O)CSc2nnc(-c3cccnc3)n2CCc2ccccc2)s1 | -2.07
49 | O=C(NCCOc1ccccc1)c1cc([N+](=O)[O-])ccc1N1CCOCC1 | -62.1
50 | CC1(C)CC(=O)C2=C(C1)NCN(CCCN1CCOCC1)C2 | 20.4
51 | CCCCn1c(SCC(=O)NC(C)(C)C)nnc1-c1ccco1 | -1.57
52 | O=c1[nH]c(N/N=C\c2ccc3c(c2)OCO3)nc2ccccc12 | -70.7
53 | CCc1[nH]nc2c1C(c1ccc(C)o1)C(C#N)=C(N)O2 (centres unmarked) | 3.55
54 | CCOC(=O)C1C2C=CC3(CN(Cc4cccs4)C(=O)C13)O2 (centres unmarked) | 1.73
55 | Cc1cnc(NC(=O)C2=C([O-])c3ccccc3S(=O)(=O)N2C)s1.[Na+] | 18
56 | CCC(=O)N(CCCN(C)C)c1nc(-c2cc(OC)ccc2OC)cs1.Cl | -37.3
